Experimental data from PubChem BioAssay AID504832 (National Center for Advancing Translational Sciences (NCATS), 2011).
The campaign covered roughly 310,000 compounds. About 18,000 (5.8%) were called active. The inconclusive results got no clear call from the source; some entries with a clear call stand among them for comparison. Calls come from the whole dose curve; as a rule, active = well fitted inhibition curve with a large enough effect; inconclusive = small, poorly fitted or top-dose-only effect, or another doubt; inactive = no such curve, though single readings can be large or run the other way. Potencies of inconclusive entries are left out as doubtful fits.

Experiment: Primary qHTS for delayed death inhibitors of the malarial parasite plastid, 48 hour incubation
Settings: P. falciparum luciferase growth in erythrocytes; series mostly up to 28.7 µM
Procedure, shortened: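 Firefly luciferase activity from engineered P. falciparum reports growth; inhibitors lower the luminescent signal. Cultures contained 2% hematocrit erythrocytes at 0.1% final parasitemia.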
Potency is the fitted concentration of half-maximal effect; tags give direction and shape of the fitted curve.

| SMILES | Potency |
| --- | --- |
| CC(=O)c1cnc2c(-c3ccccc3)cnn2c1C | inactive |
| COc1ccc(-n2c(C)c(C)c3c(NCCO)ncnc32)cc1 | inactive |
| CC1=NN(c2ccc(C)c(C)c2)C(=O)/C1=C\C=C\c1ccc([N+](=O)[O-])o1 | inactive |
| O=C(Cc1ccc(Cl)cc1)Nc1ccc(N2CCCC2)cc1 | inactive |
| Cc1ccc(OCC(=O)N2CCN(C(=O)Cc3ccccc3)CC2)cc1 | inconclusive [inhibitor, full curve, poor fit] |
| CN1C(=O)C(O)(CC(=O)c2ccccc2O)c2cc(Br)ccc21 (configuration not stated) | inconclusive [inhibitor, partial curve] |
| COc1cc(/C=N/NC(=O)c2cccc(N3CCCC3=O)c2)ccc1O | inactive |
| CNC(=O)CCc1[nH]c2ccccc2c1Sc1ccccc1 | inconclusive [inhibitor, partial curve, poor fit] |
| O=C(CNCc1cccs1)Nc1ccc(N2CCCCCC2)cc1 | inactive |
| CCOC(=O)C1=C(COC(=O)c2cc(S(=O)(=O)N(C)C)ccc2C)NC(=O)NC1C (configuration not stated) | inconclusive [inhibitor, single point] |
| CCc1nc(SCC(=O)N2CCCc3ccccc32)c2oc3ccccc3c2n1 | inconclusive [inhibitor, partial curve, poor fit] |
| CCCCc1cc(O)c(CCCC)c(O)c1 | inconclusive [inhibitor, full curve] |
| COc1cccc(N=C2SC(CC(=O)Nc3ccccc3)C(=O)N2Cc2ccccn2)c1 (configuration not stated) | inconclusive [inhibitor, partial curve, poor fit] |
| Cc1ccc(C(=O)NCc2ccncc2)cc1S(=O)(=O)Nc1cccc(C)c1C | inactive |
| Cc1nc([N+](=O)[O-])c(C(=O)OCc2cccc(Br)c2)n1C | inactive |
| O=C(c1cc(Cl)nc2ccccc12)N1CCN(Cc2ccc3c(c2)OCO3)CC1 | inconclusive [inhibitor, partial curve] |
| COc1ccccc1-c1ccc(Nc2cccc(C(C)=O)c2)nn1 | inactive |
| O=C(CCCc1nc(-c2ccccc2)no1)NCc1cccnc1 | inconclusive [inhibitor, partial curve, poor fit] |
| Cc1cc(Cl)ccc1OCC(=O)Nc1nc(-c2cccnc2)cs1 | inconclusive [inhibitor, partial curve, poor fit] |
| CCS(=O)(=O)N1CCC(C(=O)NCCc2ccccc2)CC1 | inactive |
| COc1ccc(NS(=O)(=O)c2cc(N/C(=N\S(=O)(=O)c3ccccc3)c3ccc(F)cc3)ccc2Cl)cc1 | inconclusive [inhibitor, single point] |
| C[C@]12CCC3C(CCC4=C(Cl)C(=O)CC[C@@]43C)C1CCC2O (some centres not stated) | inconclusive [inhibitor, single point] |
| CCCCC(c1nnnn1C1CCCC1)N1CCN(C2CCCC2)CC1 (configuration not stated) | inconclusive [inhibitor, partial curve, poor fit] |
| COc1ccc(CCN(Cc2cccs2)S(=O)(=O)c2ccc(S(=O)(=O)N(C)C3CCCCC3)cc2)cc1OC | inconclusive [inhibitor, partial curve, poor fit] |

| SMILES | Potency |
| --- | --- |
| O=C1NCN(c2ccccc2)C12CCN(CC1COc3ccccc3O1)CC2 (configuration not stated) | inconclusive [inhibitor, single point] |
| Fc1cc(Cl)ccc1NC1=NCCCCC1 | inactive |
| Clc1ccccc1CSc1nnc(-c2cccnc2)n1Cc1ccco1 | inconclusive [inhibitor, single point] |
| COc1cc(C2c3c(-c4ccccc4O)n[nH]c3C(=O)N2Cc2ccco2)cc(OC)c1OC (configuration not stated) | active: 11.7 µM |
| O=C(NCCCN1CCOCC1)c1cccc(S(=O)(=O)Nc2ccccc2Cl)c1 | inactive |
| COc1cc(C(=O)Nc2ccc3c(c2)Cc2ccccc2-3)cc(OC)c1OC | inactive |
| Cc1c(C(=O)N2CCN(c3ccc([N+](=O)[O-])cc3)CC2)oc2ccccc12 | inconclusive [inhibitor, single point] |
| CC(C(=O)Nc1sc2c(c1C#N)CCCCC2)N1C(=O)c2ccccc2C1=O (configuration not stated) | inconclusive [inhibitor, single point] |
| Cn1nc(OCC(=O)O)cc1C(F)(F)F | inactive |
| Fc1ccccc1NC(=S)N1CCN(C/C=C/c2ccccc2)CC1 | inactive |
| O=C(NCC1CCCO1)C1CC(c2ccccc2Cl)=NO1 (configuration not stated) | inactive |
| CC(C)(C)C(=O)CSc1nc2ncc(Br)cc2[nH]1 | inconclusive [inhibitor, single point] |
| Oc1ccccc1/C=N/NC(=S)NC1CC2C=CC1C2 (configuration not stated) | inconclusive [inhibitor, partial curve, poor fit] |
| CC(C)/C(=N\NS(=O)(=O)c1ccc(Br)cc1)c1cccs1 | inactive |
| Cc1ccc(NC(=O)c2cc(-c3cccs3)nc3ccccc23)nc1 | inconclusive [inhibitor, single point] |
| CCn1c(=O)c2c(nc3n2CCCN3CCc2ccccc2)n(C)c1=O | inconclusive [inhibitor, partial curve, poor fit] |
| O=C(c1ccc(N2CCCCS2(=O)=O)cc1)N1CCN(c2ccc(N3CCOCC3)nn2)CC1 | inconclusive [inhibitor, partial curve] |
| c1ccc2[nH]c(SCc3cn4cccnc4n3)nc2c1 | inactive |
| CCN(CC)S(=O)(=O)c1ccc(C(=O)NCc2ccc3c(c2)cc(C)n3C)cc1 | inconclusive [inhibitor, single point] |
| CCc1ccccc1NC(=O)C1=CC(c2cccs2)=NS(=O)(=O)N1C | inconclusive [inhibitor, partial curve] |
| Cc1sc2c(c1C)C(c1cccs1)=NCC(=O)N2CC(=O)NCc1cccs1 | inconclusive [inhibitor, partial curve, poor fit] |
| Cc1cccc(Oc2ccc3c(c2)cc(C(=O)O)n3C)c1 | inactive |
| COc1ccc(-c2cn(-c3ccc(Br)cc3)c3[n+]2CCS3)cc1 | active: 1.04 µM |
